Data from the supplement of paper PMC8728848.
Some of the results follow.

How the values were obtained:
Assay in all cases: glycan array binding signal (z-score within array); higher = stronger binding
Conditions in all cases: glycan notation: IUPAC condensed, linker removed
[1] = molecular target: Neu5Ac(a2-3)Gal(b1-4)[Fuc(a1-3)]GlcNAc(b1-6)[Neu5Ac(a2-3)Gal(b1-3)]GalNAc
Method in brief: (§1)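 The Consortium for Functional Glycomics database supplied 3228 glycan arrays, of which those lacking an available protein sequence were dropped. The binding signal, a within-array Z-score, was averaged across arrays of the same protein sequence and across linkers. Negative scores can be read as non-binding.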

[2] = molecular target: Neu5Ac(a2-3)Gal(b1-4)[Fuc(a1-3)]GlcNAc6S
Method in brief: as §1

[3] = molecular target: Neu5Ac(a2-3)Gal6S(b1-4)GlcNAc
Method in brief: as §1

[4] = molecular target: Neu5Ac(a2-3)Gal6S(b1-4)[Fuc(a1-3)]GlcNAc
Method in brief: as §1

Neu5Ac(a2-3)GalNAc = molecular target: Neu5Ac(a2-3)GalNAc
Method in brief: as §1

[5] = molecular target: Neu5Ac(a2-3)GalNAc(b1-4)GlcNAc
Method in brief: as §1

[6] = molecular target: Neu5Ac(a2-3)[GalNAc(b1-4)]Gal(b1-4)Glc
Method in brief: as §1

[7] = molecular target: Neu5Ac(a2-3)[GalNAc(b1-4)]Gal(b1-4)GlcNAc
Method in brief: as §1

[8] = molecular target: Neu5Ac(a2-3)[GalNAc(b1-4)]Gal(b1-4)GlcNAc(b1-3)GalNAc
Method in brief: as §1

[9] = molecular target: Neu5Ac(a2-3)[Neu5Ac(a2-6)]GalNAc
Method in brief: as §1

Neu5Ac(a2-6)Gal = molecular target: Neu5Ac(a2-6)Gal
Method in brief: as §1

[10] = molecular target: Neu5Ac(a2-6)Gal(b1-3)GlcNAc(b1-3)[Gal(b1-4)GlcNAc(b1-6)]Gal(b1-4)Glc
Method in brief: as §1

Neu5Ac(a2-6)Gal(b1-4)Glc = molecular target: Neu5Ac(a2-6)Gal(b1-4)Glc
Method in brief: as §1

[11] = molecular target: Neu5Ac(a2-6)Gal(b1-4)GlcNAc
Method in brief: as §1

[12] = molecular target: Neu5Ac(a2-6)Gal(b1-4)GlcNAc(b1-2)Man
Method in brief: as §1

[13] = molecular target: Neu5Ac(a2-6)Gal(b1-4)GlcNAc(b1-2)Man(a1-3)Man(b1-4)GlcNAc(b1-4)GlcNAc
Method in brief: as §1

[14] = molecular target: Neu5Ac(a2-6)Gal(b1-4)GlcNAc(b1-2)Man(a1-3)[Gal(b1-4)GlcNAc(b1-2)Man(a1-6)]Man(b1-4)GlcNAc(b1-4)GlcNAc
Method in brief: as §1

[15] = molecular target: Neu5Ac(a2-6)Gal(b1-4)GlcNAc(b1-2)Man(a1-3)[GlcNAc(b1-2)Man(a1-6)]Man(b1-4)GlcNAc(b1-4)GlcNAc
Method in brief: as §1

[16] = molecular target: Neu5Ac(a2-6)Gal(b1-4)GlcNAc(b1-2)Man(a1-3)[GlcNAc(b1-2)Man(b1-4)GlcNAc(b1-2)Man(a1-6)]Man(b1-4)GlcNAc(b1-4)GlcNAc
Method in brief: as §1

[17] = molecular target: Neu5Ac(a2-6)Gal(b1-4)GlcNAc(b1-2)Man(a1-3)[GlcNAc(b1-4)][Neu5Ac(a2-6)Gal(b1-4)GlcNAc(b1-2)Man(a1-6)]Man(b1-4)GlcNAc(b1-4)GlcNAc
Method in brief: as §1

[18] = molecular target: Neu5Ac(a2-6)Gal(b1-4)GlcNAc(b1-2)Man(a1-3)[Man(a1-6)]Man(b1-4)GlcNAc(b1-4)GlcNAc
Method in brief: as §1

[19] = molecular target: Neu5Ac(a2-6)Gal(b1-4)GlcNAc(b1-2)Man(a1-3)[Neu5Ac(a2-3)Gal(b1-4)GlcNAc(b1-2)Man(a1-6)]Man(b1-4)GlcNAc(b1-4)GlcNAc
Method in brief: as §1

[20] = molecular target: Neu5Ac(a2-6)Gal(b1-4)GlcNAc(b1-2)Man(a1-3)[Neu5Ac(a2-6)Gal(b1-4)GlcNAc(b1-2)Man(a1-6)]Man(b1-4)GlcNAc(b1-4)GlcNAc
Method in brief: as §1

[21] = molecular target: Neu5Ac(a2-6)Gal(b1-4)GlcNAc(b1-2)Man(a1-3)[Neu5Ac(a2-6)Gal(b1-4)GlcNAc(b1-2)Man(a1-6)]Man(b1-4)GlcNAc(b1-4)[Fuc(a1-6)]GlcNAc
Method in brief: as §1

[22] = molecular target: Neu5Ac(a2-6)Gal(b1-4)GlcNAc(b1-2)Man(a1-6)Man(b1-4)GlcNAc(b1-4)GlcNAc
Method in brief: as §1

[23] = molecular target: Neu5Ac(a2-6)Gal(b1-4)GlcNAc(b1-2)Man(a1-6)[Gal(b1-4)GlcNAc(b1-2)Man(a1-3)]Man(b1-4)GlcNAc(b1-4)GlcNAc
Method in brief: as §1

[24] = molecular target: Neu5Ac(a2-6)Gal(b1-4)GlcNAc(b1-2)Man(a1-6)[GlcNAc(b1-2)Man(a1-3)]Man(b1-4)GlcNAc(b1-4)GlcNAc
Method in brief: as §1

[25] = molecular target: Neu5Ac(a2-6)Gal(b1-4)GlcNAc(b1-2)Man(a1-6)[Man(a1-3)]Man(b1-4)GlcNAc(b1-4)GlcNAc
Method in brief: as §1

B1: Nictaba (Nicotiana tabacum), Q94EW1 (protein)
chain: MQGQWIAARDLSITWVDNPQYWTWKTVDPNIEVAELRRVAWLDIYGKIETKNLIRKTSYAVYLVFKLTDNPRELERATASLRFVNEVAEGAGIEGTTVFISKKKKLPGELGRFPHLRSDGWLEIKLGEFFNNLGEDGEVEMRLMEINDKTWKSGIIVKGFDIRPN
- glycan array binding signal (z-score) [1]: -0.275
- glycan array binding signal (z-score) [2]: -0.265
- glycan array binding signal (z-score) [3]: -0.272
- glycan array binding signal (z-score) [4]: -0.254
- glycan array binding signal (z-score) (Neu5Ac(a2-3)GalNAc): -0.253
- glycan array binding signal (z-score) [5]: -0.22
- glycan array binding signal (z-score) [6]: -0.261
- glycan array binding signal (z-score) [7]: -0.269
- glycan array binding signal (z-score) [8]: -0.316
- glycan array binding signal (z-score) [9]: -0.311
- glycan array binding signal (z-score) (Neu5Ac(a2-6)Gal): -0.271
- glycan array binding signal (z-score) [10]: -0.287
- glycan array binding signal (z-score) (Neu5Ac(a2-6)Gal(b1-4)Glc): -0.258
- glycan array binding signal (z-score) [11]: -0.276
- glycan array binding signal (z-score) [12]: -0.387
- glycan array binding signal (z-score) [13]: 1.36
- glycan array binding signal (z-score) [14]: -0.045
- glycan array binding signal (z-score) [15]: 0.258
- glycan array binding signal (z-score) [16]: 0.071
- glycan array binding signal (z-score) [17]: -0.387
- glycan array binding signal (z-score) [18]: 1.87
- glycan array binding signal (z-score) [19]: 0.06
- glycan array binding signal (z-score) [20]: -0.115
- glycan array binding signal (z-score) [21]: -0.341
- glycan array binding signal (z-score) [22]: 0.139
- glycan array binding signal (z-score) [23]: 1.9
- glycan array binding signal (z-score) [24]: 0.983
- glycan array binding signal (z-score) [25]: 0.567
